Laboratory results reported in PubChem BioAssay AID624417 (National Center for Advancing Translational Sciences (NCATS), 2012).
Out of some 410,000 compounds screened, about 6,400 (1.6%) were called active. Inconclusive means that the source gave no clear call. Such entries were picked first, then a sample of the others. Calls follow the shape of the dose curve; as a rule, active = well fitted inhibition curve with a large enough effect; inconclusive = small, poorly fitted or top-dose-only effect; inactive = no such curve, though single readings can be large or run the other way. No potency is given beside an inconclusive call; the fits are too rough.

target: Glucagon-like peptide 1 receptor (Homo sapiens) (UniProt P43220); experiment: qHTS of GLP-1 Receptor Inverse Agonists (Inhibition Mode); settings: HEK293 GLP-1R CRE-luciferase, luminescence, 24 h, GLP-1R form is constitutively active; activity change, negative = inhibition: at 38.3 µM (top of the series) unless noted; also: nearly all actives have a fitted effect of over 55% in size
UniProt P43220, sequence (P43220 whole entry, looked up): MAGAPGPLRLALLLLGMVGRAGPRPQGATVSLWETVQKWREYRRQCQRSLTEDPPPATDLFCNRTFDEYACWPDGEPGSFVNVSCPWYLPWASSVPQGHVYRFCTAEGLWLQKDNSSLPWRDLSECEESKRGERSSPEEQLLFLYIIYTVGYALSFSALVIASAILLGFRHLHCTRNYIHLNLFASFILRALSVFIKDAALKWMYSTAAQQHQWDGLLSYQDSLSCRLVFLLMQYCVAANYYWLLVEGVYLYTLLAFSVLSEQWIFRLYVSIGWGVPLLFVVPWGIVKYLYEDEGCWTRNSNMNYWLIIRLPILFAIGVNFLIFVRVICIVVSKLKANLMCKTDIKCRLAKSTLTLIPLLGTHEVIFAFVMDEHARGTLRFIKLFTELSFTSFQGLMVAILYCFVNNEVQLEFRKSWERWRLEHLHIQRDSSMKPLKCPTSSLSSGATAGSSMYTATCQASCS
Method in brief: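 qHTS in 1536-well format: reporter HEK293 cells expressing constitutive GLP-1R activity in DMEM + 10% Nu serum, 24 hr with compounds at 37 deg C, luminescence read after 12 min with detection reagent.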
% is scaled to controls: 0 for no effect and ±100 for the full control effect; potency is read from the fitted curve at half-maximal effect; tags tell the direction and shape of the fitted curve.

Compound	Potency	activity change, negative = inhibition
Cc1cccc(C2c3[nH]c4ccccc4c3CCN2C(=O)c2cc(-c3cccn3C)n[nH]2)n1 (centres undefined)	inconclusive [inhibitor, partial curve, poor fit]	
CC1CCCN(CCC(=O)Nc2ccc(Br)cc2)C1 (centres undefined)	inconclusive [inhibitor, partial curve, poor fit]	
CCOc1ccc(NC(=O)CN(C)S(=O)(=O)c2ccc3[nH]c4c(c3c2)CCCC4)cc1	active: 11.2 µM	
CN1CCN(S(=O)(=O)c2cccc(C(=O)Nc3nc(-c4ccccc4)cs3)c2)CC1	inconclusive [inhibitor, single point]	
COc1cc(OC)cc(C(=O)NC(C(=O)Nc2ccc3c(c2)OCCO3)C(C)C)c1 (centres undefined)		inactive: 1.46%
COc1ccc(C(=O)N2CCN(c3nc4c(C)c(Cl)ccc4s3)CC2)c(OC)c1		inactive: 6.86%
O=C(O)C(Cc1ccccc1)N1C(=O)/C(=C/c2cccs2)SC1=S (centres undefined)	inconclusive [inhibitor, partial curve, poor fit]	
COc1cc(NC(=S)NCCC(c2ccccc2)c2ccccc2)cc(OC)c1	inconclusive [inhibitor, full curve, poor fit]	
CN(C)CCCNC(=S)/N=c1\sccn1Cc1ccccc1Cl	inconclusive [inhibitor, single point]	
COc1cccc(CNc2ccccc2O)c1OCc1ccccc1F	inconclusive [inhibitor, single point]	
Oc1c(C(Nc2ccccn2)c2cccnc2)cc(Cl)c2cccnc12 (centres undefined)	inconclusive [inhibitor, single point]	
CC(=O)c1cccc(NC(=O)c2nc(-c3ccccc3)n(-c3cccc(C)c3)n2)c1	inconclusive [inhibitor, single point]	
Cc1cccc(C(=O)N/N=C/c2cc(Br)c(Br)o2)c1	inconclusive [inhibitor, single point]	
COc1ccccc1N1CN(S(=O)(=O)c2ccc(C)cc2)c2nc3ccccc3nc21	inconclusive [inhibitor, full curve, poor fit]	
CCN1CCN(c2ncnc3scc(-c4ccc(C)cc4)c23)CC1	inconclusive [inhibitor, single point]	
COc1ccc(CNC(=O)CN2c3ccccc3S(=O)(=O)c3ccccc32)cc1	inconclusive [inhibitor, partial curve, poor fit]	
CCC(C)NC(=O)CSc1nc2cc3c(cc2c(=O)n1CCCCCC(=O)NCc1ccc(OC)cc1)OCO3 (centres undefined)		inactive: 12.4%
Cc1cccc(N(CC(=O)Nc2ccc(-c3nc4ccc(C)cc4s3)cc2)S(C)(=O)=O)c1	inconclusive [inhibitor, partial curve]	
O=C(Nc1ccc2c(c1)OCCO2)c1c(Cl)cccc1Cl	inconclusive [inhibitor, single point]	
CC(Oc1ccccc1Br)C(=O)N1CCc2ccccc21 (centres undefined)	inconclusive [inhibitor, partial curve, poor fit]	

Compound	Potency	activity change, negative = inhibition
Cc1nc2ccccc2nc1N/N=C/c1ccc(O)cc1		inactive: 92.6%
Cc1sc2ncn(CCn3cnc4sc(C)c(C)c4c3=O)c(=O)c2c1C	active: 5.01 µM	
CCCCn1nnnc1C(c1ccccc1)N1CCN(c2ccc(C(F)(F)F)cc2[N+](=O)[O-])CC1 (centres undefined)	inconclusive [inhibitor, single point]	
CC(=O)c1sc(NC(=O)CCS(=O)(=O)c2ccc(F)cc2)nc1C	inconclusive [inhibitor, single point]	
COc1ccc(CN2CCN(Cc3cc4ccccc4o3)CC2CCO)c(F)c1 (centres undefined)	inconclusive [inhibitor, single point]	
C=CCOC(=O)C1=C(C)NC(C)=C(C(=O)OCC=C)C1c1ccc(O)cc1	inconclusive [inhibitor, single point]	
CCCCOc1ccc(C(=O)N(CC)CC(=O)NCc2cccs2)cc1	inconclusive [inhibitor, single point]	
COc1ccc2c(c1)CCCC21NC(=O)N(CC(=O)NCc2cccs2)C1=O (centres undefined)	inconclusive [inhibitor, single point]	
COc1ccccc1N1CCN(S(=O)(=O)c2ccc(-c3cnc(C4CC4)o3)cc2)CC1	inconclusive [inhibitor, partial curve, poor fit]	
CC1CCCN(CCCOc2ccc(Cl)cc2Br)C1 (centres undefined)	inconclusive [inhibitor, single point]	
O=C(NCc1ccc(OC(F)(F)F)cc1)C12CN(Cc3ccccc3)CC1C(c1cccc([N+](=O)[O-])c1)=NO2 (centres undefined)	inconclusive [inhibitor, single point]	
NS(=O)(=O)c1ccc(CCNc2nc(C(F)(F)F)nc3ccccc23)cc1		inactive: -12.4%
Cc1ccc2occ(CC(=O)N3CCN(c4cccc(Cl)c4)CC3)c2c1	inconclusive [inhibitor, partial curve, poor fit]	
COc1ccc(N/C=C2\CCc3ccccc3C2=O)cc1	inconclusive [inhibitor, partial curve, poor fit]	
O=c1c(Cc2ccc(Cl)cc2)c(O)ccn1Cc1cccc(Cl)c1	inconclusive [inhibitor, partial curve, poor fit]	
O=C(COc1ccc(Cl)cc1Cl)N/N=C/c1ccccn1	inconclusive [inhibitor, single point]	
COc1ccccc1NC(=O)C1CCN(S(=O)(=O)c2ccc3c(c2)NC(=O)C(C)S3)CC1 (centres undefined)	inconclusive [inhibitor, single point]	
COc1cc(S(=O)(=O)NC2CCCCC2)c(C)cc1C	inconclusive [inhibitor, partial curve, poor fit]	
CCCN1CCN(CCCNC(=O)Cn2c(-c3cccs3)cc3cc(Cl)ccc32)CC1	inconclusive [inhibitor, single point]	
